Experimental data: paper PMC4336329 (PLoS ONE, 2015)
The campaign covered roughly 310,000 compounds. About 2,200 (0.71%) showed an effect of 50% or more. The effect is printed as a negative number. The list shows a part of the results.

Biological target: human ether-à-go-go-related gene (hERG) potassium channel (human, UniProt Q12809)
Assay: primary screen, population patch clamp on CHO cells stably expressing hERG

human ether-à-go-go-related gene (hERG) potassium channel, sequence (Q12809 whole entry, looked up): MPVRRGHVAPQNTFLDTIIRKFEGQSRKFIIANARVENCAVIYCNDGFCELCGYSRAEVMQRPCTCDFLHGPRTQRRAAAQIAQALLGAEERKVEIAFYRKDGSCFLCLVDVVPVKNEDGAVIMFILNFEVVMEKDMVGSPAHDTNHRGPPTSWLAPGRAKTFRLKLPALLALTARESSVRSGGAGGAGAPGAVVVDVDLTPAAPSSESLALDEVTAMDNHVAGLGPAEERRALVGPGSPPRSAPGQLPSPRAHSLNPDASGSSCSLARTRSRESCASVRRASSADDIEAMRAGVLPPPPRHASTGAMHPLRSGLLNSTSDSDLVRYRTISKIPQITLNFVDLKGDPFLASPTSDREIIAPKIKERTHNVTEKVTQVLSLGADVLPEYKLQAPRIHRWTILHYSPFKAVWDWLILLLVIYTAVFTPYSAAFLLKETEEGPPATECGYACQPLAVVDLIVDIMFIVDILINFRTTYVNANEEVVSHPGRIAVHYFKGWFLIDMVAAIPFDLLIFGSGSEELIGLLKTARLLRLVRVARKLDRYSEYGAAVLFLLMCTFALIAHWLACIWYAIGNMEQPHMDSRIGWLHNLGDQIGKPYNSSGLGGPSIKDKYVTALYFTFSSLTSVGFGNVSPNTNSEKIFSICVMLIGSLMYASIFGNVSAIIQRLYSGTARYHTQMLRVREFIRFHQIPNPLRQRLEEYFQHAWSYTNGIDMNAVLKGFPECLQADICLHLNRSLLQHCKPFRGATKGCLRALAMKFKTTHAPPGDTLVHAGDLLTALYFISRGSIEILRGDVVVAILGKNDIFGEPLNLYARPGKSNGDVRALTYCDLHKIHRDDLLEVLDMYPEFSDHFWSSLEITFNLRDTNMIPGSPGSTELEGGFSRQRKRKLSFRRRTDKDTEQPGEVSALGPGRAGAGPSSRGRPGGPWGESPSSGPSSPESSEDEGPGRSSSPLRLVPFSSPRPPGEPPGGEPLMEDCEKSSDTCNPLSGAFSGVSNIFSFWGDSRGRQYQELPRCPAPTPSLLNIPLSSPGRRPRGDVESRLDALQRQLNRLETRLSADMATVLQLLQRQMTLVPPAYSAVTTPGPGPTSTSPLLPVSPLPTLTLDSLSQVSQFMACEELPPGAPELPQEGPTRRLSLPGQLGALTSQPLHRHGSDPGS

Row | Compound | hERG current change (%, negative = inhibition) at 1uM
1 | CN1CCN(C2CCN(c3cccc(Cl)c3)CC2)CC1CCO (centres unmarked) | 16%
2 | CSc1ncccc1C(=O)OCC(=O)N(C)C | 8.49%
3 | N#CC1=C(N)OC2=C(C(=O)CCC2)C1CCc1ccccc1 (centres unmarked) | 9.32%
4 | CCc1ccc(C(=O)COC(=O)c2cncc(Br)c2)cc1 | 1.47%
5 | Cc1ccc(S(=O)(=O)N(C)c2ccc(OC(=O)c3cccs3)cc2)cc1C | 13.5%
6 | COc1cc(OC)cc(C(=O)NCCc2cnc[nH]2)c1 | 17.8%
7 | CC(=O)Oc1ccc(Nc2ccccc2)cc1 | 17%
8 | O=C(NNC(=S)NCC1CCCO1)c1ccc(S(=O)(=O)N2CCOCC2)cc1 (centres unmarked) | 11.5%
9 | COc1ccc(C2=CC(c3sccc3C)n3nnnc3N2)cc1 (centres unmarked) | 5.33%
10 | CC(CCc1ccco1)NC(=O)c1cccc2c1C(=O)N(C1CCCCC1)C2 (centres unmarked) | 7.73%
11 | O=C(NC1CCCC1)c1cccc(S(=O)(=O)N2CCCCC2)c1 | 1.28%
12 | COc1ccc(CNc2ccc(N3CCOCC3)cc2)cc1 | 18.9%
13 | Cc1ccc(C(=O)/C=C/C(=O)O)cc1 | 3.51%
14 | CCCCOCCCN1CC(=O)N2C(C)c3[nH]c4ccccc4c3C[C@H]2C1=O (some centres unmarked) | 11.1%
15 | Cc1oc2ccc(OCc3cccc(Cl)c3)cc2c1C(=O)O | 0.298%
16 | COCCN(CC(=O)NCc1ccc(OC)cc1)C(=O)CCC(=O)Nc1nccs1 | 11.7%
17 | CCOC(=O)c1c(CS(=O)(=O)c2ccccc2)n(C)c2cc(Br)c(O)c(CN(C)C)c12 | -10.2%
18 | Cc1cc2nc(-c3ccc[nH]c3=O)[nH]c2cc1C | 13.6%
19 | COCCCNC(=O)COc1ccc(S(=O)(=O)Nc2ccccc2)cc1 | -4.03%
20 | COc1cc2c(OC(C)=O)c3c(c(-c4ccc5c(c4)OCO5)c2cc1OC)C(=O)OC3 | 12.9%
21 | CSCCC(NS(=O)(=O)c1ccccc1F)C(=O)NCCCn1nc(C)cc1C (centres unmarked) | -1.95%
22 | C/C(CC(C)C)=N\Nc1ccc(S(N)(=O)=O)cc1[N+](=O)[O-] | 2.68%
23 | COc1nc(SCC(=O)Nc2ccccc2Cl)nc(N(C)C)n1 | 8.71%
24 | COCCNC(=O)/C(C#N)=C/c1c(N2CCN(c3cccc(Cl)c3)CC2)nc2c(C)cccn2c1=O | 11.7%
25 | CCc1ccc(NC(=O)CN2CCc3ccccc3C2)cc1 | -20.3%
26 | COc1ccc(C(=O)CCc2ccc(OC)c(OC)c2)cc1 | 8.32%
